The chains are these.
B1: 32701355_32702498_6989_CDS_ENSG00000115760_ENST00000421745|human|control|control (ssRNA)
RNA: GGGAGUUCUACAGUCCGACGAUCUGUGUCUAAAUUAGAACGGGACCAUUCUGCUGUCCGACGUAAACGAAUUAAAUCCUUAAAGUGCUUUGAAGUGGCCUGCUUUAGUUUUGCUUGUUCUACCAGGAGUUUAUAUGAUGAUCCCAACAGAGGAUUGAGCAUCA
B2: chr2:202488911:202488912:-_ENSG00000155755_ENST00000286196|hu_mus|hu_hu_hu_mus_False|48_68 (ssRNA)
RNA: GGGAGUUCUACAGUCCGACGAUCAUUGAAACAUUUUUCAUAAUCUCCAGUAGCAUUUCAGCAUUAUUAAUCAAAAACUCAAUUGUAAAUACACAUGUCUUAUAAAAAUACACUUAAAAACACGAGUGGGGAGCGCAGGCGCCACAACAGAGGAUUGAGCAUCA
B3: chr11:57381840:57381841:+_ENSG00000149131_ENST00000378324|hu_hu|FALSE|FALSE (ssRNA)
RNA: GGGAGUUCUACAGUCCGACGAUCCAGUUCCAGCACUGUCUGGUGCUGCAUCGCAGAAACCUGAAGAUCUGGGUCCUCUGUCAGCCCACACAGGUUAAGGUCAUAAGAAAAAUCGAAGAAUUCCAAUUUCUCCAUGAUUGAGAGCAACAGAGGAUUGAGCAUCA
B4: chr10:33190432:33190433:-_ENSG00000150093_ENST00000302278|hu_mus|hu_hu_hu_mus_True|58_88 (ssRNA)
RNA: GGGAGUUCUACAGUCCGACGAUCUACAUUUUCCAAACCUGCAUGUGAGUAAAACCAUGGCCACAGAGCCCCAAAACUACCUAACUGUGACUAAGAUGCUGCUGCUGUGAGCUUGGUGUUGCAAAAUCCGCCUGAGUAGGAUUCCAACAGAGGAUUGAGCAUCA
B5: chr3:10015032:10015033:+_ENSMUSG00000027533_ENSMUST00000029046|mus_mus|FALSE|FALSE (ssRNA)
RNA: GGGAGUUCUACAGUCCGACGAUCGUUGUUGCCAUCACACGUAAUGAUACAGUCUGGCUUGGCCAUGGCAGCCAUCUUCCUAAGAGCCAGUCCUACUCCUAGCUCUUUCAUGUACUCCUCAAAGCCGUGGCUUUCCAUCAGGCGCAACAGAGGAUUGAGCAUCA
B6: chr17:60770872:60770873:+_ENSG00000011028_ENST00000303375|hu_hu|hu_hu_hu_mus_True|38_38 (ssRNA)
RNA: GGGAGUUCUACAGUCCGACGAUCUCUUUAAAAAAAAAAAAAAAAAGACAAACAAUAAUAGCACAUUUCGAGAAUCAAGAACUACAAUAGAGGGUCCAUGUCUUCGAUUUGUUCACAUCGUCCUGCACUGGGACACGGGGACUGCAACAGAGGAUUGAGCAUCA

Binding signal data for six molecules are collected here from paper PMC12136788.

The list shows a part of the results.

This experiment addresses T1, UNK ZnF1-3 (human, UniProt Q9C0B0 31-174).
T1 sequence: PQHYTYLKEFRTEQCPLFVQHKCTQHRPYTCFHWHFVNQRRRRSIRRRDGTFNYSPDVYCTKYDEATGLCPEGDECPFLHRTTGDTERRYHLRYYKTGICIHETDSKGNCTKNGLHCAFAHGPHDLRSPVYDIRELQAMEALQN
Description: nsRBNS (natural sequence RNA bind-n-seq); RBNS binding buffer (assumed for nsRBNS): 25 mM Tris pH 7.5, 150 mM KCl, 3 mM MgCl2, 0.01% Triton X-100, 500 ug/ml BSA, 20 U/ml SUPERase-In, 4 C; UNK is unkempt and MSI1 is Musashi-1; names of the RNAs are library labels; protein concentration not given here; high values mean tight binding.
B1 returned a binding signal of 1.38 enrichment R.
Molecule B2 returned a binding signal of 1.57 enrichment R.
In turn, B3 gave a binding signal of 0.765 enrichment R.
Regarding B4, the binding signal came to 1.15 enrichment R.
B5: the binding signal came to 0.459 enrichment R.
The value for B6 was 1.9 enrichment R.
